In patent US20060057198A1, “Drug delivery from embolic agents” (BIOCOMPATIBLES UK LIMITED, priority 2003, published 2006):

How the values were obtained:
[1] = Release of salicylic acid from microspheres into water; assay type: physicochemical; conditions: for salicylic acid loaded released: 100 ml water, 37° C.
Protocol: UV measurement were continued for 60 hours after this. […] For both microsphere types the majority of the drug was released within the first 15 minutes (FIG. 18).

women with menorrhagia = conditions: primary menorrhagia, 1200 mg/day, P less than 0.01; cited from earlier work

| further release on transferral into fresh water ([1]; after 60 hours) | salicylic acid loaded released ([1]; high AMPS microspheres) | salicylic acid loaded released ([1]; low AMPS microspheres) | Compound | median blood loss (women with menorrhagia) |
| --- | --- | --- | --- | --- |
| did not bring about any further release | approximately 30% | approximately 25% | O=C(O)c1ccccc1O [salicylic acid] |  |
|  |  |  | CC(C)Cc1ccc(C(C)C(=O)O)cc1 (stereo not shown) [Ibuprofen] | reduced |
